Some of the results follow.

B1: PhoQ; a variant is named by its letters at X, in order, P23837 (parent)
chain: MKKLLRLFFPLSLRVRFLLATAAVVLVLSLAYGMVALIGYSVSFDKTTFRLLRGESNLFYTLAKWENNKLHVELPENIDKQSPTMTLIYDENGQLLWAQRDVPWLMKMIQPDWLKSNGFHEIEADVNDTSLLLSGDHSIQQQLQEVREDDDDAEMTHSVAVNVYPATSRMPKLTIVVVDTIPVELKSSYMVWSWFIYVLSANLLLVIPLLWVAAWWSLRPIEALAKEVRELEEHNRELLNPATTRELTSLVRNLNRLLKSERERYDKYRTTLTDLTHSLKTPLXXLQXXLRSLRSEKMSVSDAEPVMLEQISRISQQIGYYLHRASMRGGTLLSRELHPVAPLLDNLTSALNKVYQRKGVNISLDISPEISFVGEQNDFVEVMGNVLDNACKYCLEFVEISARQTDEHLYIVVEDDGPGIPLSKREVIFDRGQRVDTLRPGQGVGLAVAREITEQYEGKIVAGESMLGGARMEVIFGRQHSAPKDE

In this test the parent is B1. The experiment in a line: enrichment ratio after two sorts for PhoP signalling (ratio (wild type AVST 3.29)); higher = more functional. Particulars: with PhoP (E. coli).
IPDE: the enrichment ratio is ≤ 0.25.
For QYKH the value was ≤ 0.25; for SHWD, ≤ 0.25; for MNFE, ≤ 0.25.
For MRWY the value was ≤ 0.25; for KQHP, ≤ 0.25; for IAVT, ≤ 0.25.
The value for VMWN was ≤ 0.25.
For the variant PAEW, the enrichment ratio was ≤ 0.25.
The value for HGFW was 0.903.
KERC: the enrichment ratio was ≤ 0.25.
TCTG: the enrichment ratio turned out to be 20.
For SWEK the value was ≤ 0.25; for NFFW, ≤ 0.25.
For ALIC the value was ≤ 0.25; for WESG, ≤ 0.25; for WYVK, ≤ 0.25.
For IARY the value was ≤ 0.25; for DWIS, ≤ 0.25.
PVER: the enrichment ratio was ≤ 0.25.
The value for AMRC was ≤ 0.25.
The value for DWKT was ≤ 0.25.
The value for DYLV was ≤ 0.25.
As for LDYQ, the enrichment ratio was ≤ 0.25.
The value for SCEG was ≤ 0.25; that for MADR was ≤ 0.25.
The value for GIGP was ≤ 0.25.
For FAVH, the enrichment ratio was ≤ 0.25.
The value for IAVL was ≤ 0.25; that for GGMM was ≤ 0.25.
For FQRC, the enrichment ratio is ≤ 0.25.
The value for HQSH was ≤ 0.25; that for LTPM was ≤ 0.25; that for TPHW was ≤ 0.25.
As to HKNQ, the enrichment ratio is ≤ 0.25.
For MRNI the value was ≤ 0.25.
For NDLS the value was ≤ 0.25; for DRNM, ≤ 0.25.
PEKP: the enrichment ratio was ≤ 0.25.
As for PTME, the enrichment ratio was ≤ 0.25.
For KLKI the value was ≤ 0.25.
In the case of FDMR, the enrichment ratio was ≤ 0.25.
On to VSTE, for which the enrichment ratio was ≤ 0.25.
For GSWT the value was ≤ 0.25; for QDCC, ≤ 0.25; for VLMP, ≤ 0.25.
The value for PLII was ≤ 0.25.
For FTCG the value was ≤ 0.25.
For the variant FSIS, the enrichment ratio was determined as 0.291.
TSDS: the enrichment ratio amounted to 0.648.
Consider DREM, for which the enrichment ratio is ≤ 0.25.
As for HTRL, the enrichment ratio was ≤ 0.25.
With TPVQ, the enrichment ratio was ≤ 0.25.
The value for GCTD was ≤ 0.25.
For QHQI, the enrichment ratio is ≤ 0.25.
With EKLP, the enrichment ratio is ≤ 0.25.
Regarding PYKH, the enrichment ratio was ≤ 0.25.
Turning to NKHI, the enrichment ratio is ≤ 0.25.
HCGP: the enrichment ratio was ≤ 0.25.
For WYPI the value was ≤ 0.25.
For SPTL, the enrichment ratio is ≤ 0.25.
Regarding SCFK, the enrichment ratio was ≤ 0.25.
For VHYG the value was ≤ 0.25.
For FMVE the value was ≤ 0.25; for HRAP, ≤ 0.25; for ANPG, ≤ 0.25.
For CFHF the value was ≤ 0.25.
Regarding HCIS, the enrichment ratio is ≤ 0.25.
On to TRED, for which the enrichment ratio is ≤ 0.25.
For SEHV the value was ≤ 0.25; for YHKD, ≤ 0.25.
The value for RFEP was ≤ 0.25; that for RRCT was ≤ 0.25.
For IHRS the value was ≤ 0.25; for TADS, ≤ 0.25.
As for IKPD, the enrichment ratio was found to be 3.42.
The value for HPHK was ≤ 0.25; that for KANH was ≤ 0.25.
On to FQYD, for which the enrichment ratio is ≤ 0.25.
The value for NQTF was ≤ 0.25.
PMLW: the enrichment ratio is ≤ 0.25.
Turning to NGNN, the enrichment ratio was ≤ 0.25.
For SINH the value was 6.28.
For the variant KTTL, the enrichment ratio is ≤ 0.25.
Regarding QGPR, the enrichment ratio is ≤ 0.25.
Turning to PAAY, the enrichment ratio is ≤ 0.25.
For ALGI the value was ≤ 0.25; for SNFF, ≤ 0.25.
With GKTK, the enrichment ratio is ≤ 0.25.
For LAMQ the value was ≤ 0.25; for TNTM, 31.2; for ICVK, ≤ 0.25.
As to AYHD, the enrichment ratio was ≤ 0.25.
For YGHR the value was ≤ 0.25; for STGE, 0.755.
For AAMK the value was 35.5.
For the variant RSDA, the enrichment ratio is ≤ 0.25.
For AGIC the value was 3.1; for NPCI, ≤ 0.25; for DKMV, ≤ 0.25.
In the case of KGWI, the enrichment ratio is ≤ 0.25.
With TKPS, the enrichment ratio is ≤ 0.25.
The value for RQAA was ≤ 0.25.
Take DHYI: the enrichment ratio is ≤ 0.25.
As to MMAM, the enrichment ratio was ≤ 0.25.
Turning to SNYI, the enrichment ratio stood at 0.257.
For the variant WCHP, the enrichment ratio was ≤ 0.25.
With LHTD, the enrichment ratio is ≤ 0.25.
Take YAPY: the enrichment ratio is ≤ 0.25.
For QLRY the value was ≤ 0.25; for QECR, ≤ 0.25.
As for PKLE, the enrichment ratio was ≤ 0.25.
The value for GYQE was ≤ 0.25; that for EGMK was ≤ 0.25.
For PQHN the value was ≤ 0.25.
Take VHSC: the enrichment ratio was ≤ 0.25.
The value for QLAW was ≤ 0.25; that for FAIA was ≤ 0.25; that for TQGI was 8.61.
For MVCL the value was 4.31; for QSIL, ≤ 0.25.
The value for FDRF was ≤ 0.25.
Turning to PNFK, the enrichment ratio was ≤ 0.25.
For NMPA the value was ≤ 0.25.
As to RCRK, the enrichment ratio is ≤ 0.25.
The value for QAPR was ≤ 0.25; that for SAPF was ≤ 0.25.
Turning to HTTA, the enrichment ratio is ≤ 0.25.
In the case of MKPV, the enrichment ratio is ≤ 0.25.
Regarding PCKD, the enrichment ratio is ≤ 0.25.
Consider NYSA, for which the enrichment ratio was ≤ 0.25.
As for TCDV, the enrichment ratio is ≤ 0.25.
For SIFP the value was ≤ 0.25; for DLGN, ≤ 0.25; for SRHW, ≤ 0.25.
The value for GTPY was ≤ 0.25; that for GIMM was 17.3.
For YKEP, the enrichment ratio is ≤ 0.25.
The value for WVRP was ≤ 0.25.
For YRAI the value was ≤ 0.25; for EYLY, ≤ 0.25; for RFLE, ≤ 0.25.
QWFM: the enrichment ratio is ≤ 0.25.
On to FWFH, for which the enrichment ratio was ≤ 0.25.
As to NKGR, the enrichment ratio was ≤ 0.25.
For LNMP, the enrichment ratio is ≤ 0.25.
The value for KRFP was ≤ 0.25; that for DQDA was ≤ 0.25; that for KQDS was ≤ 0.25.
Consider VRKT, for which the enrichment ratio was ≤ 0.25.
For QKSQ the value was ≤ 0.25; for SFNC, ≤ 0.25.
As to RIDL, the enrichment ratio was ≤ 0.25.

(Values after a collection of fitness landscapes (doi:10.1126/science.1257360).)
